PubChem BioAssay AID624296 (National Center for Advancing Translational Sciences (NCATS), 2012)
Screen size: about 350,000 compounds; about 9,900 (2.8%) were called active. Inconclusive results, whose numbers are uncertain, are shown with a selection of clear calls. Calls follow the shape of the dose curve; as a rule, active = well fitted activation curve with a large enough effect; inconclusive = small, poorly fitted or top-dose-only effect; inactive = no such curve, though single readings can be large or run the other way. No potency is given beside an inconclusive call; the fits are too rough.
Potency is read from the fitted curve at half-maximal effect; tags tell the direction and shape of the fitted curve.

Assay: A quantitative high throughput screen for small molecules that induce DNA re-replication in MCF 10a normal breast cells. Also: nearly all actives have a fitted effect of over 50% in size. As to activity, positive = re-replication: % of control where 0% means no effect.
Conditions: MCF 10A DNA re-replication, Hoechst nuclear intensity, 48 h; activity, positive = re-replication: at 46.1 µM (top of the series)
For CCOC(=O)C(CC)/C(C)=N\NC(=O)c1ccccc1O (stereo not given), the Potency was inconclusive [activator, single point]. In the case of CN1c2ccccc2C(C)(C)C12CC(c1ccc(Cl)c(S(=O)(=O)N3CCCC3)c1)=NO2 (stereo not given), the Potency is reported as inconclusive [activator, partial curve, poor fit]. For CCOc1ccc(NC(=O)Nc2ccc3nccnc3c2)cc1, the Potency was inconclusive [activator, single point]. In the case of COC(=O)c1ccc(CSc2nnc(CNC(=O)c3cccs3)o2)o1, the Potency is reported as inconclusive [activator, single point]. For COc1ccc2c(c1OC)C(=O)OC2Nc1nc(-c2ccc(-c3ccccc3)cc2)cs1 (stereo not given), the Potency was inconclusive [activator, single point]. In the case of C[C@@H]1CN([C@H](C)CO)C(=O)c2cc(NS(=O)(=O)c3cccs3)ccc2O[C@H]1CN(C)Cc1ccccc1, the Potency is reported as “inactive”. In the case of CC(C)CNC(=O)c1cc(-c2ccc3c(c2)OCO3)on1, the Potency is reported as inconclusive [activator, partial curve, poor fit]. With Cc1cc([N+](=O)[O-])nn1CC(=O)N/N=C/c1ccccc1F the Potency was “inactive”. With COc1ccc(C(=O)NC(=S)Nc2ccc([N+](=O)[O-])cc2C)cc1OC the Potency was “inactive”. With Cn1c(SCC(=O)Nc2cccnc2Cl)nc2ccccc21 the Potency was “inactive”. For Cc1ccc(S(=O)(=O)Nc2cc(=O)[nH]c(SCc3ccc(Cl)cc3)n2)cc1, the Potency was active: 18.4 µM. In the case of COc1ccccc1C(=O)COC(=O)/C(=C/c1ccccc1)NC(C)=O, the Potency is reported as “inactive”. For Cc1c(CN2CC[C@@H](N3CCN(c4ccccn4)CC3)[C@H](O)C2)[nH]c2ccc(F)cc12, the Potency was inconclusive [activator, single point]. In the case of COc1ccccc1Nc1nc(NCc2ccco2)nc(N)c1[N+](=O)[O-], the Potency is reported as “inactive”. For Cc1cc(C)c2c(C(C)(C)C)nn(-c3ccccc3)c2n1, the Potency was inconclusive [activator, partial curve, poor fit]. For CCCCCCc1cc2cc(C(=O)Nc3ccccc3OC)c(=O)oc2cc1O, the Potency was active: 0.651 µM. With CC(=O)c1cccc(NC(=O)CSc2nc(N3CCOCC3)nc(N3CCOCC3)n2)c1 the Potency was inconclusive [activator, single point]. With CC(C)OC(=O)CSc1nnc(CNc2ccc(Cl)cc2)n1Cc1ccccc1 the Potency was inconclusive [activator, partial curve, poor fit]. In the case of CCOC(=O)c1c(NC(=O)Cn2nnc(-c3ccc(Cl)cc3)n2)sc(C)c1C, the Potency is reported as inconclusive [activator, single point]. With COc1cccc(NC(=S)N2CCc3cc(OC)c(OC)cc3C2)c1 the Potency was “inactive”. With CC(C)(C)c1cccc(OCCCSc2ncccn2)c1 the Potency was inconclusive [activator, partial curve, poor fit]. For CC1=CN2C(=N)/C(=C/c3ccc([N+](=O)[O-])o3)C(=O)N=C2S1, the Potency was inconclusive [activator, single point]. With S=C1NC[C@H](CC2CCCCC2)N1CC1CCCCC1 the Potency was inconclusive [activator, single point]. In the case of COc1ccc(C)cc1S(=O)(=O)N1CCN(S(=O)(=O)c2cc(C)ccc2OC)CC1, the Potency is reported as “inactive”. For COc1ccc(-c2[nH]nc3c2C(c2ccc(OC(=O)N4CCOCC4)cc2)C(C#N)=C(N)O3)cc1 (stereo not given), the Potency was inconclusive [activator, full curve, poor fit]. With CCN(CC)CCOc1nnc(-c2ccc(C)cc2)c2ccccc12 the Potency was inconclusive [activator, single point]. With Cc1csc(=Nc2c(C)n(C)n(-c3ccccc3)c2=O)n1Cc1ccccc1 the Potency was “inactive”. In the case of O=C(NCCN1CCN(C(=O)c2cccc(Br)c2)CC1)C(=O)Nc1ccc(Br)cc1, the Potency is reported as inconclusive [activator, single point]. In the case of CCOc1ccc(C(C(=O)NCC2CCCO2)N(C(=O)c2snc(C(N)=O)c2N)c2ccc3c(c2)OCCO3)cc1 (stereo not given), the Potency is reported as inconclusive [activator, single point]. With Cc1csc(NC(=O)CSc2ccc(-c3ccccc3)nn2)n1 the Potency was “inactive”. For CC(=O)c1c(C)n(-c2ccccc2Br)c2ccc(O)cc12, the Potency was inconclusive [activator, single point]. For CC(=O)c1c(C)[nH]c(C(=O)OCc2c(F)cccc2Cl)c1C, the Potency was “inactive”. With CS(=O)(=O)c1ccc2nc(NC(=O)C3=NN(c4ccccc4)C(=O)CC3)sc2c1 the Potency was inconclusive [activator, partial curve, poor fit]. With O=C(NCc1cccnc1)c1cccn1-c1ncc(C(F)(F)F)cc1Cl the Potency was “inactive”. In the case of N#Cc1c(N)n(CCNC(=O)c2ccc(Cl)cc2)c2nc3ccccc3nc12, the Potency is reported as active: 18.4 µM. In the case of Cc1ccc(OCCC(=O)OCc2csc(CC(=O)Nc3ccccc3C)n2)cc1, the Potency is reported as inconclusive [activator, full curve, poor fit]. With C=CCNCCCCOc1ccc(C)cc1[N+](=O)[O-] the Potency was “inactive”. With O=C(/C=C/Sc1ccccc1)c1ccccc1 the Potency was active: 5.17 µM. In the case of COc1cc2c(cc1NC(=O)CN(C)Cc1cccc(OC)c1OC)oc1ccccc12, the Potency is reported as active: 7.31 µM. For CCN(CC)c1ccc(NC(=O)COc2ccccc2C#N)cc1S(=O)(=O)Nc1ccc(OC)cc1, the Potency was inconclusive [activator, single point]. In the case of COc1cccc(-n2ccnc2SCC(=O)Nc2ccccc2)c1, the Potency is reported as inconclusive [activator, single point]. With N#Cc1ccccc1OCc1cccc(S(=O)(=O)N2CCOCC2)c1 the Potency was “inactive”. In the case of COC(=O)C1=C(C)N(CC2CC2)C(=NCc2cccc(C(F)(F)F)c2)N[C@H]1c1ccccc1, the Potency is reported as inconclusive [activator, single point]. With COC(=O)C1=C(CSc2nc3ccccc3o2)NC(=O)NC1c1cc(C)ccc1C (stereo not given) the Potency was inconclusive [activator, full curve, poor fit]. In the case of CCOCCCNC(=O)C(c1ccc(C)cc1)N(Cc1cccs1)C(=O)c1ccccn1 (stereo not given), the activity, positive = re-replication is reported as inconclusive: 14.6% [activator]. For COc1cccc(CNC(=O)Cn2nc(C)c3c(C)n(-c4ccc(C)cc4)nc3c2=O)c1OC, the Potency was “inactive”. For CCOc1cc(NC(=O)C2CC2)c(OCC)cc1NC(=O)c1ccccc1OCC, the Potency was inconclusive [activator, single point]. With CCOc1ccc(NC(=O)C2CCCN(S(=O)(=O)c3cccc4nsnc34)C2)cc1 (stereo not given) the Potency was inconclusive [activator, single point]. In the case of Cc1nc(SCC(=O)c2cc3ccccc3oc2=O)c(C#N)c(-c2ccccc2)c1C(=O)Nc1ccccc1, the Potency is reported as inconclusive [activator, full curve, poor fit]. In the case of Cc1ccc(C)c2nc(Cl)c(C#N)cc12, the Potency is reported as inconclusive [activator, single point]. For COc1ccc(NS(=O)(=O)c2ccc(C(=O)Nc3c(C)n(C)n(-c4ccccc4)c3=O)cc2)cc1, the Potency was inconclusive [activator, full curve, poor fit]. In the case of COc1cc(C(=O)N2CCN(c3ccccc3)CC2)c2ccccc2n1, the Potency is reported as inconclusive [activator, full curve, poor fit]. For Cc1nc2c(C)cccn2c1/C(O)=C1\C(=O)C(=O)N(CCN2CCOCC2)C1c1ccncc1 (stereo not given), the Potency was inconclusive [activator, full curve, poor fit]. For COc1ccc(-c2csc(NC(=O)c3nc(-c4ccccc4)oc3C)n2)cc1, the Potency was inconclusive [activator, partial curve, poor fit]. For Cc1ccc(-n2nnnc2SCC(=O)NCC2(N3CCOCC3)CCCCC2)cc1, the Potency was inconclusive [activator, partial curve, poor fit]. With CCOC(=O)CNS(=O)(=O)c1cc(-c2nnc(Nc3ccc4c(c3)OCO4)c3ccccc23)ccc1C the Potency was inconclusive [activator, single point]. For Clc1ccc(-c2cn3nc4c(nc3n2)CCCC4)cc1, the Potency was inconclusive [activator, partial curve, poor fit]. With CCn1c(C(C#N)/C(=N\S(=O)(=O)c2cccs2)c2ccccc2)nc2ccccc21 (stereo not given) the Potency was inconclusive [activator, single point]. For CCOc1ccccc1N1CCN(Cc2c(C)n(C)n(-c3ccccc3)c2=O)CC1, the Potency was “inactive”. In the case of COc1cccc(CNC(=O)c2ccc(C)c(S(=O)(=O)N3CCCCC3)c2)c1, the Potency is reported as inconclusive [activator, partial curve, poor fit]. With Clc1ccc2c(N/N=C/c3cccnc3)ccnc2c1 the Potency was inconclusive [activator, single point]. In the case of COC(=O)c1cc2c(ccn2-c2ccc(F)cc2)n1Cc1cccc(OC)c1, the Potency is reported as inconclusive [activator, single point]. For COc1ccc(-c2c3c(=O)n(C)c(=O)n(C)c3cn2Cc2ccccn2)cc1, the Potency was active: 18.4 µM. With COc1ccccc1/C=N/NC(=O)c1cc2c(OC)c(OC)ccc2[nH]1 the Potency was inconclusive [activator, single point]. For CC(C)C[C@@H](CNCC(=O)[C@H](Cc1c[nH]c2ccccc12)NC(=O)c1[nH]cnc1C(=O)N[C@@H](C)CN)NC(=O)c1nc[nH]c1C(=O)N[C@@H](Cc1ccccc1)C(=O)O, the Potency was inconclusive [activator, single point].
